About 800 (1.6%) of roughly 50,000 compounds showed an effect of 50% or more. The list shows a part of the results.

The assay deals with Bcl-2-like protein 10 (Homo sapiens) (UniProt Q9HD36). Kind of assay: Phenotype converters, Bcl-B/TR3 peptide binding displacement, primary biochemical FP (AID 1240).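 Note: 0% = Bcl-B with tracer peptide and DMSO and 100% = tracer peptide lacking Bcl-B.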 The following applies: GST-Bcl-B / FITC-TR3 peptide fluorescence polarization; stronger effect = higher value; compound at 3.75 mg/L. On the technique in general: Polarisation of emitted light reports the rotation of a fluorescent probe.
Sequence of UniProt Q9HD36 (Q9HD36 whole entry, looked up): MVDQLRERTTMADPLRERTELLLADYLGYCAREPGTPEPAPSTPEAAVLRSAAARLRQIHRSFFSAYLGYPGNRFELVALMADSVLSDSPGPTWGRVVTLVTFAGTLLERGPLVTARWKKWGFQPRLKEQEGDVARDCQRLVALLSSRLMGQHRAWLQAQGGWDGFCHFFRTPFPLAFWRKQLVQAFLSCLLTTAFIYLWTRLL
Regarding `COc1ccc(S(=O)(=O)N2CCCCC2)cc1Br`, the displacement was determined as 1.6%. With `COc1ccc(C2=C/C(=C3\OC(=O)c4ccccc43)C(=O)O2)cc1` the figure was -9.3%; with `COC(=O)c1c(NC(=O)COc2ccc(Cl)cc2C)sc2c1CCC2`, 18.6%. With `CCOc1ccc(Cc2c(O)nc(SC)n(-c3ccccc3)c2=O)cc1` the figure was -2%; with `NC1=C(Cl)C(=O)c2c(cccc2[N+](=O)[O-])C1=O`, 4.5%. For the compound `CCC(=O)NC(c1ccc(OC)c(OC)c1)c1c(OC(C)=O)ccc2ccccc12` (stereo not drawn), the displacement turned out to be 10.6%. With `COc1ccccc1NC(=O)CN(Cc1ccccc1)S(=O)(=O)c1ccccc1` the figure was -8.7%; with `NC(=O)c1cc(-c2ccc(Cl)cc2)nc2ccc(Br)cc12`, 6.9%; with `COc1ccc(OCCNc2cc(Cl)ccc2[N+](=O)[O-])cc1`, 17.3%. With `O=C(c1cccnc1)N1N=C(c2ccc([N+](=O)[O-])cc2)CC1(O)C(F)(F)F` (stereo not drawn) the figure was -8.5%; with `O=C(NCCN1CCOCC1)c1cnn2c1NC(c1ccco1)CC2C(F)(F)F` (stereo not drawn), 6.2%. On to `Cc1ccc([N+](=O)[O-])cc1-c1ccc(/C=C2/C(=O)NC(=O)N(C)C2=O)o1`, for which the displacement is -8%. On to `O=C(Oc1ccc(Cl)c(Cl)c1)c1ccc([N+](=O)[O-])cc1`, for which the displacement was found to be 0.1%. For `CCc1ccc(CN2CCN(Cc3cc(OC)ccc3O)CC2)cc1`, the displacement is 4.5%.

With `O=c1c2cc3c(=O)n(-c4nc5ccccc5s4)c(=O)c3cc2c(=O)n1-c1nc2ccccc2s1`, the displacement was found to be 13.1%. With `O=C(COc1ccc2ccccc2c1)NCc1ccc(F)cc1` the figure was 1.4%; with `O=C(c1cccc(Cl)c1)N1CCN(c2ccc(F)cc2)CC1`, 10%; with `COc1cc(C=C2C(=O)NC(=S)NC2=O)cc(Cl)c1OCCOc1ccccc1`, 4.8%. With `CCc1ccc(NCCC(=O)c2ccc(Cl)c(Cl)c2)cc1` the figure was 12.8%. With `COc1ccccc1N1C(=O)NC(=O)C(=Cc2cc(OC)c(O)c([N+](=O)[O-])c2)C1=O` the figure was 6.8%; with `CC1CN(C(=O)CCN2C(=O)c3ccccc3C2=O)CC(C)O1` (stereo not drawn), 13.3%; with `O=C1c2ccc3c4c(ccc(c24)C(=O)N1/N=C/c1ccco1)CC3`, 0.2%. Take `CCOC(=O)c1c(-c2ccc(-c3ccccc3)cc2)csc1N`: the displacement amounted to 11%.

As for `COc1cccc(/C=N/Nc2nc(-c3ccccc3)nc(C)c2C)c1O`, the displacement is -8.4%. With `Cc1cc(C)nc(SCC(=O)Nc2ccccc2[N+](=O)[O-])n1` the figure was -2.3%. Regarding `CCOC(=O)C(=CNc1ccc(C(N)=O)cc1)C(=O)OCC`, the displacement is -4.6%. Consider `COc1cccc(N=Cc2c(O)n(-c3ccccc3C)c(=O)[nH]c2=O)c1`, for which the displacement came out at 2.1%.

On to `CCCN1CCC(=NNC(=O)c2cccc3ccccc23)CC1`, for which the displacement is -5.7%. Turning to `CCOc1ccc(N/C=C\C(=O)c2ccc3c(c2)OCO3)cc1`, the displacement worked out at 10.4%. With `Cc1ccc(OCC(=O)Nc2cc(C(F)(F)F)cc(C(F)(F)F)c2)cc1C` the figure was 6.8%; with `Cc1nc(N)sc1C(=O)N/N=C/c1ccc(O)cc1`, -0.9%; with `O=C(CCC(NC(=O)OCc1ccccc1)C(=O)OCc1ccccc1)NCC(=O)OCc1ccccc1` (stereo not drawn), 1.9%.

On to `CCOc1ccc(C(=O)Nc2ccc(Oc3ccccc3)cc2)cc1`, for which the displacement is -0.4%.

`COc1ccc(/C=C/C(=O)c2ccc3c(c2)OCCO3)cc1[N+](=O)[O-]`: the displacement was 3.4%. With `CCC1CCc2c(sc(NC(=O)c3ccc([N+](=O)[O-])cc3Cl)c2C(=O)OC)C1` (stereo not drawn), the displacement was determined as 7.8%.

As for `CCOc1ccc(N(CC(=O)Nc2c(C)cccc2C)S(C)(=O)=O)cc1`, the displacement was 0.1%. Consider `NC(=O)c1ccccc1NC(=O)c1cc([N+](=O)[O-])ccc1Cl`, for which the displacement is -6.5%. With `O=C1N/C(=N/N=C\c2cccc([N+](=O)[O-])c2)SC1Cc1ccc(Br)cc1` (stereo not drawn) the figure was -8%; with `Cc1ccc(/C=C2\SC(=S)N(NS(=O)(=O)c3ccc(C)cc3)C2=O)cc1`, 9.3%. With `Cc1[nH]c2ccc(C(=O)O)cc2c(=O)c1CC=C(Cl)Cl` the figure was -8.7%; with `CCOc1ccc2oc(-c3ccccc3)c(C(=O)O)c2c1`, 5.4%. With `Cc1cc(-n2c(C)cc(C=O)c2C)cc(C)c1Br` the figure was 0%; with `O=[N+]([O-])c1ccc(Oc2ccc(S(=O)(=O)Nc3ccc(Cl)cc3)cc2)cc1`, 1.4%.

Turning to `Nc1ccc2oc(-c3cccc(Cl)c3)nc2c1`, the displacement was 15.5%.

For `CC(=O)c1cccc(NC(=O)c2ccc(Br)c(S(=O)(=O)N3CCCCC3)c2)c1`, the displacement is -2.2%. In the case of `Cc1c(Cl)c(C(F)(F)F)nn1CC(=O)NCc1ccc(Cl)cc1`, the displacement turned out to be 13.2%.

As for `O=C(/C=C/c1ccccc1Cl)Nc1cc(Cl)c(Cl)cc1Cl`, the displacement was found to be 2.1%. With `COc1ccc(OC)c(C(c2c(C)[nH]n(-c3ccccc3)c2=O)c2c(C)[nH]n(-c3ccccc3)c2=O)c1` the figure was 4.4%. With `Cc1ccc(NC(=O)CCC2CCCCC2)cc1Cl` the figure was -9.1%; with `COc1ccc(OC)c(-n2cnnn2)c1`, 0.3%; with `Cc1cccnc1NC(=O)CCc1ccccc1`, 4.5%. With `CN(c1ccccc1)c1ccc(/C=C2\C(=O)ON=C2c2cccc([N+](=O)[O-])c2)cc1` the figure was -9.6%; with `Cc1cc(/C=c2\sc3nc4ccccc4n3c2=O)c(C)n1C`, 0.7%. With `CC1=C(C(=O)Nc2ccccc2)C(c2ccccc2Cl)NC(=S)N1` (stereo not drawn), the displacement is 9.6%. As for `CN1CCN(Cc2c(O)ccc3cc(-c4nc5ccccc5s4)c(=O)oc23)CC1`, the displacement stood at 121%. For the compound `O=C(/C=C/c1ccco1)Nc1ccccc1-c1ccccc1`, the displacement was -14.5%.

In the case of `CCOC(=O)CCCN1C(=O)/C(=C\c2cccs2)SC1=S`, the displacement stood at 5.8%. On to `CCCCCCCc1c(C#N)c(N)[nH]c(=S)c1C#N`, for which the displacement came to 0%.

As for `CN(c1ccc(C(=O)NCCSCc2ccccc2)cc1)S(=O)(=O)c1ccccc1`, the displacement is 4.4%. With `C=CCOC(=O)C1=C(C)NC(=O)NC1c1cccc(Br)c1` (stereo not drawn) the figure was -4.1%; with `CCOC(=O)c1ccc(N2C(=O)C3C(C2=O)C2(C)c4ccccc4C3(C)c3ccccc32)cc1` (stereo not drawn), 10.3%; with `CC(=O)Oc1ccc2c(C)c(C)c(=O)oc2c1`, 6.4%.

For the compound `COc1ccc(Cl)cc1C(=O)N(C(C)C)C(C)C`, the displacement came to 13%. With `Nc1cc(Cl)c(S(=O)(=O)Nc2ccccc2)cc1S(=O)(=O)Nc1ccccc1` the figure was 1%. With `O=C(CCN1C(=O)/C(=C\c2cccs2)SC1=S)Nc1ccccc1C(=O)O` the figure was 19.8%. With `O=C(COc1ccc2ccccc2c1)Nc1ccccc1F` the figure was 8.3%. `COc1ccc(S(=O)(=O)N(CCc2ccccc2)CC(=O)Nc2ccc(C)cc2C)cc1`: the displacement was -15.1%.

With `CCOC(=O)CCN(CP(C)(=O)OC(C)C)C(=O)OCC` (stereo not drawn), the displacement stood at 11%. With `CC1CCc2c(sc(NC(=O)COc3ccc(Cl)cc3Cl)c2C#N)C1` (stereo not drawn) the figure was 6.5%; with `CCC(C(=O)Nc1cc(Cl)ccc1Cl)c1ccccc1` (stereo not drawn), 12%; with `COc1ccc(/C=C/C(=O)c2cccc(Br)c2)cc1`, 2.5%. As to `CCN1CCN(S(=O)(=O)c2cc(Cl)ccc2Cl)CC1`, the displacement was -10.9%. With `COc1ccccc1NC(=O)c1cc(-c2ccccc2C)nc2ccccc12` the figure was -8.4%; with `CCCCOc1cc2oc(=O)cc(C)c2cc1OCCCC`, -8.4%. With `Fc1ccc(NC(=S)N(CCN(C(=S)Nc2ccc(F)cc2)c2ccccc2)c2ccccc2)cc1` the figure was -3.3%.

With `COC(=O)c1ccccc1NC(=O)c1ccc(CN2CCOCC2)cc1`, the displacement turned out to be 2.8%. For the compound `CCOC(=O)c1ccc(NC(=O)CN(c2ccccc2OC)S(=O)(=O)c2ccccc2)cc1`, the displacement was determined as 5.1%. With `CCCCOC(=O)c1cccc(NC(=O)COc2ccc(C)cc2C)c1` the figure was 0%; with `CC12c3ccccc3C(C)(c3ccccc31)C1C(=O)NC(=O)C12` (stereo not drawn), 11%; with `CC(=O)c1ccc(/C=C2\SC(=S)N(C)C2=O)o1`, 16.2%. With `N#C/C(=C\c1cn(CC(=O)Nc2ccccc2)c2ccccc12)C(=O)Nc1ccccc1` the figure was -36.7%. In the case of `CCOC(=O)C1=C(O)/C(=C/c2ccco2)SC1=Nc1ccc(C)cc1`, the displacement is 6%. With `Cc1cc(=O)oc2cc(OCC(=O)c3ccc(Cl)cc3)c(Cl)cc12`, the displacement is -10.6%. With `COc1cc2c(cc1[N+](=O)[O-])CCCC2`, the displacement was -11.5%. With `O=C(c1ccccc1F)N1CCN(S(=O)(=O)c2ccccc2)CC1` the figure was -4.9%; with `CC(C)CCNC(=O)C(=O)Nc1ccccc1F`, 5.4%. With `NC(=S)N/N=C/c1ccc(C2C=CCC2)s1` (stereo not drawn) the figure was -13.8%. With `O=C(Nc1ccc2oc(-c3cccc(Cl)c3Cl)nc2c1)c1ccc([N+](=O)[O-])cc1` the figure was 0%; with `O=C1C2=C(C(c3ccccc3)=NCCN2)C(c2ccc(F)cc2)N1c1ccccc1` (stereo not drawn), -5%.

Take `Cc1ccc(N2C(=O)/C(=C/c3cc(C)n(-c4cccnc4)c3C)C(=O)NC2=S)cc1C`: the displacement turned out to be 7.6%.

For `CC(Oc1ccccc1)C(=O)Nc1ccc2[nH]c(=O)[nH]c2c1` (stereo not drawn), the displacement is -3.6%. Take `CCN(CC)S(=O)(=O)c1ccc(NC(=O)CCc2ccccc2)cc1`: the displacement was -2.7%. With `COc1cc(C=C2C(=O)NC(=S)NC2=O)ccc1OCCC(C)C` the figure was 11.4%; with `COc1ccc(C(=O)NCc2ccncc2)cc1[N+](=O)[O-]`, -1.8%. With `O=C(N=Nc1c(O)[nH]c2ccccc12)c1cc(-c2ccc(Br)cc2)nc2ccccc12` the figure was -16.1%; with `CC(=O)Cc1c(C(=O)O)c(C)nn1-c1ccccc1`, -13.1%; with `Cc1ccc(C(=O)O/N=C(\N)c2cccnc2)cc1`, -6.8%. With `COc1cc(/C=C(/C#N)C(=O)Nc2cccc(Br)c2)c([N+](=O)[O-])cc1OC` the figure was -8.1%; with `CC(C)(O)C#Cc1ccc(C(=O)NCCc2ccccc2)cc1`, 1%.

Turning to `O=C(CN(c1cccc(Cl)c1)S(=O)(=O)c1ccccc1)NC12CC3CC(CC(C3)C1)C2`, the displacement was -10.4%.

In the case of `O=c1nc(/C=C/c2cc([N+](=O)[O-])ccc2Cl)cc(C(F)(F)F)[nH]1`, the displacement was -7.6%. With `O=C(O)c1cccc(Nc2nc(-c3ccc(Br)cc3)cs2)c1` the figure was 14.1%. With `COc1ccc2c(c1)CCC1C2=NN(/C(C)=C/C(C)=O)C1c1ccc(Br)cc1` (stereo not drawn) the figure was 14.8%; with `O=C1NC(=S)N(c2ccccc2)C(=O)/C1=C\c1ccc(N2CCCC2)cc1`, -3.8%; with `CCOc1ccc2cc(S(=O)(=O)NCc3cccnc3)ccc2c1`, -4%. With `O=C1c2ccccc2C(=O)N1CCc1nc2ccccc2c(=O)n1Cc1ccco1`, the displacement is -6.1%. Take `COC(=O)c1c(C)oc2cc(Br)c(OCC(N)=O)cc12`: the displacement amounted to 6.1%.

For the compound `Cc1cc(C)nc(SCC(=O)OCC(=O)Nc2ccc(S(N)(=O)=O)cc2)n1`, the displacement was 10.1%.

These data come from PubChem BioAssay AID1240 (Sanford-Burnham Center for Chemical Genomics, 2008).
